Where “and” joins values, the source holds several entries; their conditions need not be identical. Equal values may be shown once. Hit rate of the full screen: of about 16,000 compounds, about 40 (0.2%) were called active. Another 1% or so got no clear call; they are omitted. The call rests on the fitted dose curve; in most records, active means well fitted activation curve with a large enough effect; inconclusive means small, poorly fitted or top-dose-only effect, or another doubt; inactive means no such curve, though single readings can be large or run the other way. The list shows a part of the results.
The molecules below were run against Rap guanine nucleotide exchange factor 4 (Homo sapiens) (UniProt Q8WZA2) (assay: Validation qHTS for agonist of cAMP-regulated guanine nucleotide exchange factor 4 (EPAC2)). Conditions: EPAC2 Rap1B BODIPY-GDP exchange, fluorescence; activation: stronger effect = higher value.
In short: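 Signal normalized against 6.5 mM cAMP as agonist control. Mix of EPAC2 (100 nM), RAP1B-BODIPY-GDP (250 nM) and GDP (50 uM) was read kinetically at 480/540 nm, every 5 min over 30 min, after 5 min room-temperature incubation with compound.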
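Further: exchange makes BODIPY-GDP fluorescence drop when released from Rap1B; series mostly up to about 150 µM.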
On the % scale 0 is the no-effect control and ±100 the full control effect.

UniProt Q8WZA2, sequence (Q8WZA2 whole entry, looked up): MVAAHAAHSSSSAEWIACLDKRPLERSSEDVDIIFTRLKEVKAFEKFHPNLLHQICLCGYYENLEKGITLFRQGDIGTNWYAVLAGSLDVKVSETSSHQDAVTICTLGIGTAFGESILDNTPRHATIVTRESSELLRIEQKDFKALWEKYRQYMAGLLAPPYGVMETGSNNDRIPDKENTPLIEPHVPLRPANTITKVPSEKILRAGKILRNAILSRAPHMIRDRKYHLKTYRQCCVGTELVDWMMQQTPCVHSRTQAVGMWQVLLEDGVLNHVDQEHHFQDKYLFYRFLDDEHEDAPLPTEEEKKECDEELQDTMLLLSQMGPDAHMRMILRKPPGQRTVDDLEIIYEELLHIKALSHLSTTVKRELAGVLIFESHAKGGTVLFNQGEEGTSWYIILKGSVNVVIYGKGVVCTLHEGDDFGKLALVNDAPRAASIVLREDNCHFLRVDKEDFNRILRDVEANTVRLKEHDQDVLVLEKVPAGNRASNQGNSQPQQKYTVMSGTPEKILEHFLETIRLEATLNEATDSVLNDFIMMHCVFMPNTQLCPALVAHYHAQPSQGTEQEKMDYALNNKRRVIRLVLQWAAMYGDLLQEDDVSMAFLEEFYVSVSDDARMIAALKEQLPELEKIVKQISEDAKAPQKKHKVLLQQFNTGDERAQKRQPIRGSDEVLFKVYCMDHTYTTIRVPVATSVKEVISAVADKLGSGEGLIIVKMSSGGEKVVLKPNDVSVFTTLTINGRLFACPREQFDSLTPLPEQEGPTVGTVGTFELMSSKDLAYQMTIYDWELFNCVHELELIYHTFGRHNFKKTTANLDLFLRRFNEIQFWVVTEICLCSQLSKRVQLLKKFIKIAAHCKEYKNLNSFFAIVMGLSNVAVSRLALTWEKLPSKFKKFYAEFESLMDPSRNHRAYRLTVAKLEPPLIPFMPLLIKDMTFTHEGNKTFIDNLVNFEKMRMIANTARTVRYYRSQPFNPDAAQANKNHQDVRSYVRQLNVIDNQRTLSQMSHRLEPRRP

activation, inactive:
CC1(C)CC[C@]2(C(=O)O)C(O)C[C@@]3(C)C(=CCC4[C@@]5(C)CCC(O)C(C)(C)C5CC[C@@]43C)C2C1 (stereo partly specified) -5.3%, CN1CCCC2(CCN(C(=O)c3cccn3C)CC2)C1 -2.14%, O=C(/C=C/c1ccc(O)c(O)c1)O[C@@H]1C[C@@](OC(=O)/C=C/c2ccc(O)c(O)c2)(C(=O)O)C[C@@H](O)[C@@H]1O -31.8%, CC(C)=CCC/C(C)=C/C=C/C(C)=C/C=C/C(C)=C/C=C/C=C(C)/C=C/C=C(C)/C=C/C=C(\C)CCC=C(C)C -31.9%, CC1=C(/C=C/C(C)=C/C=C/C(C)=C/C(=O)O)C(C)(C)CCC1 -8.08% [middle of 4 runs], CN1CCN(c2ncc3nc(-c4ccccc4)c(=O)n(Cc4cccs4)c3n2)CC1 -3.37%, NC[C@@H]1CC[C@@H](N)[C@@H](O[C@H]2[C@H](O)[C@@H](O[C@H]3O[C@H](CO)[C@@H](O)[C@H](N)[C@H]3O)[C@H](N)C[C@@H]2N)O1 -7.23%, COCCn1c(=O)c(-c2ccc(OC)cc2)nc2cnc(Nc3cccc(OC)c3)nc21 -2.72%, Cc1noc(C)c1C(=O)N1CCC2(CC1)CCN(C(c1ccccc1)c1ccccc1)CC2 -7.8%, CNC(=O)CN(CCN(CCN(CC(=O)[O-])CC(=O)NC)CC(=O)[O-])CC(=O)[O-].O.[Gd+3] 0.276% and -10.5%, CC(=O)OC1CC2C(C)(C)C(=O)C3OC3[C@]2(C)C2CC[C@@]3(C)C(c4ccoc4)OC(=O)C4OC43[C@]12C (stereo partly specified) -12%, Cn1cc(C(F)(F)F)nc1-c1ccc(OC[C@@H](O)CNCCOc2ccc(O)c(C(N)=O)c2)cc1 -10.7%, COC(=O)/C=C/c1ccc2c(c1)S(=O)(=O)N(C1CCCC1)[C@H]2CC(=O)OC -20.2%, CCCCCC#CCC#CCC#CCC#CCCCC(=O)O 1.63% and -0.659%, CC1=C(C(=O)O)N2C(=O)C(NC(=O)C(N)c3ccc(O)cc3)C2SC1 (stereo unspecified) -25.2%, CN(C)c1ccc(-c2cncnc2NCc2cccnc2)cc1 4.29%, COc1cccc(N2[C@@H](CC(C)=O)c3cc(C(F)(F)F)ccc3S2(=O)=O)c1 -7.6%, CC(O)C(O)[C@H]1CNc2nc(N)[nH]c(=O)c2N1 (stereo partly specified) -16.3%, CNS(=O)(=O)CCc1ccc2[nH]cc(C3CCN(C)CC3)c2c1 -3.74%, O=c1c(-c2ccccc2)nc2cncnc2n1C1CC1 -18.5%, CC(=O)Oc1ccccc1C(=O)O -7.43% and -1.21% and -9.5%, O=C(c1ccco1)N1CCC[C@@]2(CCN(c3ccccc3)C2)C1 -1.57%, O=C(O)[C@H]1NCCC[C@H]1C(=O)O -12.3%, c1ccc2c(-n3ccnc3)nc(-c3ccoc3)nc2c1 -8.81%, COCC(=O)Nc1cc(C(=O)N[C@H]2CCCCNC2=O)c2c(c1)nc(-c1ccncc1)n2C 4.22%, NCCC(=O)[N-][C@@H](Cc1cnc[nH]1)C(=O)O.[Zn] 8.37%, COc1cc(Cl)c(CN2CCOc3ccc(CN4CCCCC4CO)cc3C2)cc1OC (stereo unspecified) -0.332%, Cc1cc(C(=O)NCC2Cc3cccc(-c4cncnc4)c3O2)c(C)o1 (stereo unspecified) 7.7%, NCCCCN=C(N)N -11.5% [middle of 5 runs], O=c1c(-c2ccc(F)c(F)c2)nc2cncnc2n1Cc1ccc(F)cc1 -34.5%, Cc1cccc(CNc2nc(-c3ccoc3)nc3ccccc23)c1 -15.5%, OCCN1CCN(Cc2ccc3c(c2)CN(Cc2ccc4ccccc4c2)CCO3)CC1 -9.14%, CC1(C)S[C@@H]2[C@H](NC(=O)[C@@H](NC(=O)N3CCNC3=O)c3ccccc3)C(=O)N2[C@H]1C(=O)O -11.5%, COc1cc(=O)n2c(c1C(=O)NCc1ccc3c(c1)OCO3)CCN(C(=O)c1cccc(F)c1)CC2 -7.83%, NCC1O[C@@H](OC2C(N)CC(N)C(O)C2O[C@@H]2OC(CO)C(O)C2O)C(N)C(O)C1O (stereo partly specified) -8.15%, O=c1[nH]c(=O)n([C@@H]2O[C@H](CO)[C@@H](O)[C@H]2O)cc1Br 6.22%, Cc1cnc(C)c(-c2cc(F)cc3c2OC(CNC(=O)C2CCOC2)C3)n1 (stereo unspecified) -5.08%, COc1ccc2ccc(=O)oc2c1CC=C(C)C -25.7%, C[C@@H]1CCC(=O)N(CC[C@H](Sc2ccc(Br)cc2)c2ccccc2)CC1 0.427%, CS(=O)(=O)N1CCC[C@@]2(CCN(C(=O)Nc3ccccc3)C2)C1 -0.213%, CC1(C)[C@H](C(=O)O)N2C(=O)C[C@H]2S1(=O)=O 2.95%, NC1C(O)OC(CO)[C@@H](O)[C@@H]1O[C@H]1O[C@@H](C(=O)O)C(O)C(O)C1O (stereo partly specified) 2.41%, C=CS(=O)(=O)O 6.25%, O=c1cnc2cnc(Oc3cccc(Cl)c3)nc2n1Cc1ccc(F)cc1 0.025%, O=C(c1cn(C2CCCN(Cc3cc(Cl)ccc3O)C2)nn1)N1CCCCC1 (stereo unspecified) -0.543%, NC(=O)[C@@H]1CCCN1C(=O)CCN1Cc2ccccc2OC(c2ccccc2F)C1 (stereo partly specified) -4.16%, COc1cc2c3cc1Oc1cc(ccc1O)C[C@@H]1c4c(cc(OC)c(O)c4Oc4ccc(cc4)C[C@@H]3N(C)CC2)CC[N+]1(C)C -7.35%, COC(=O)CC1C(C)(C)C(O)C2CC3=C4C=C(OC)OC(c5ccoc5)[C@]4(C)CCC3[C@@]1(C)C2=O (stereo partly specified) 7.15%, CC(C)CN1CCC(=O)N(CCN=[N+]=[N-])CC1 -7.23%, Cn1c(=O)c(-c2ccc(Cl)cc2)nc2cnc(OCc3ccccc3)nc21 -14.4%, Cc1nc(-c2ccc(Cl)cc2)oc1COC(C)(C)C(=O)O -10.6%
